The supplement of paper PMC8728848
This is one part of the list.

Experiments:
Test in all cases: glycan array binding signal (z-score within array); higher = stronger binding
Conditions in all cases: glycan notation: IUPAC condensed, linker removed
[1] = target: Man(a1-2)Man(a1-3)[Man(a1-2)Man(a1-6)]Man(a1-6)[Man(a1-2)Man(a1-2)Man(a1-3)]Man
Outline: (§1)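 Glycan array binding is given as a within-array Z-score, which can be read as non-binding when negative. The arrays, 3228 of them, came from the Consortium for Functional Glycomics database and were retained only where the protein sequence was available. Z-scores were averaged across arrays of the same protein sequence at different concentrations or buffers and across linkers.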

[2] = target: Man(a1-2)Man(a1-3)[Man(a1-2)Man(a1-6)]Man(a1-6)[Man(a1-2)Man(a1-2)Man(a1-3)]Man(b1-4)GlcNAc(b1-4)GlcNAc
Outline: as §1

[3] = target: Man(a1-2)Man(a1-3)[Man(a1-6)]Man(a1-6)[Man(a1-2)Man(a1-3)]Man(b1-4)GlcNAc(b1-4)GlcNAc
Outline: as §1

[4] = target: Man(a1-2)Man(a1-6)[Man(a1-3)]Man(a1-6)[Man(a1-2)Man(a1-2)Man(a1-3)]Man
Outline: as §1

[5] = target: Man(a1-2)Man(a1-6)[Man(a1-3)]Man(a1-6)[Man(a1-2)Man(a1-2)Man(a1-3)]Man(b1-4)GlcNAc(b1-4)GlcNAc
Outline: as §1

Man(a1-3)[Man(a1-6)]Man = target: Man(a1-3)[Man(a1-6)]Man
Outline: as §1

[6] = target: Man(a1-3)[Man(a1-6)]Man(a1-6)[Man(a1-2)Man(a1-3)]Man(b1-4)GlcNAc(b1-4)GlcNAc
Outline: as §1

[7] = target: Man(a1-3)[Man(a1-6)]Man(a1-6)[Man(a1-3)]Man
Outline: as §1

[8] = target: Man(a1-3)[Man(a1-6)]Man(a1-6)[Man(a1-3)]Man(b1-4)GlcNAc(b1-4)GlcNAc
Outline: as §1

[9] = target: Man(a1-3)[Man(a1-6)]Man(b1-4)GlcNAc(b1-4)GlcNAc
Outline: as §1

[10] = target: Man(a1-3)[Man(a1-6)]Man(b1-4)GlcNAc(b1-4)[Fuc(a1-6)]GlcNAc
Outline: as §1

Man(a1-6)Man = target: Man(a1-6)Man
Outline: as §1

Man(b1-4)GlcNAc = target: Man(b1-4)GlcNAc
Outline: as §1

MurNAc(b1-4)GlcNAc = target: MurNAc(b1-4)GlcNAc
Outline: as §1

Neu5Ac(a2-3)Gal = target: Neu5Ac(a2-3)Gal
Outline: as §1

[11] = target: Neu5Ac(a2-3)Gal(b1-3)GalNAc
Outline: as §1

[12] = target: Neu5Ac(a2-3)Gal(b1-3)GalNAc(b1-3)Gal(a1-4)Gal(b1-4)Glc
Outline: as §1

[13] = target: Neu5Ac(a2-3)Gal(b1-3)GalNAc(b1-4)[Neu5Ac(a2-3)]Gal(b1-4)Glc
Outline: as §1

[14] = target: Neu5Ac(a2-3)Gal(b1-3)GalNAc(b1-4)[Neu5Ac(a2-8)Neu5Ac(a2-3)]Gal(b1-4)Glc
Outline: as §1

[15] = target: Neu5Ac(a2-3)Gal(b1-3)GalNAc6S
Outline: as §1

[16] = target: Neu5Ac(a2-3)Gal(b1-3)GlcNAc
Outline: as §1

[17] = target: Neu5Ac(a2-3)Gal(b1-3)GlcNAc(b1-2)Man
Outline: as §1

[18] = target: Neu5Ac(a2-3)Gal(b1-3)GlcNAc(b1-2)Man(a1-3)[GlcNAc(b1-4)][Neu5Ac(a2-3)Gal(b1-3)GlcNAc(b1-2)Man(a1-6)]Man(b1-4)GlcNAc(b1-4)GlcNAc
Outline: as §1

[19] = target: Neu5Ac(a2-3)Gal(b1-3)GlcNAc(b1-2)Man(a1-3)[Neu5Ac(a2-3)Gal(b1-3)GlcNAc(b1-2)Man(a1-6)]Man(b1-4)GlcNAc(b1-4)GlcNAc
Outline: as §1

[20] = target: Neu5Ac(a2-3)Gal(b1-3)GlcNAc(b1-3)Gal(b1-3)GlcNAc
Outline: as §1

[21] = target: Neu5Ac(a2-3)Gal(b1-3)GlcNAc(b1-3)Gal(b1-4)GlcNAc
Outline: as §1

[22] = target: Neu5Ac(a2-3)Gal(b1-3)GlcNAc(b1-3)GalNAc
Outline: as §1

[23] = target: Neu5Ac(a2-3)Gal(b1-3)GlcNAc(b1-4)Gal(b1-4)Glc
Outline: as §1

[24] = target: Neu5Ac(a2-3)Gal(b1-3)GlcNAc(b1-6)GalNAc
Outline: as §1

[25] = target: Neu5Ac(a2-3)Gal(b1-3)GlcNAc6S
Outline: as §1

[26] = target: Neu5Ac(a2-3)Gal(b1-3)[Fuc(a1-4)]GlcNAc
Outline: as §1

[27] = target: Neu5Ac(a2-3)Gal(b1-3)[Fuc(a1-4)]GlcNAc(b1-3)Gal(b1-3)[Fuc(a1-4)]GlcNAc
Outline: as §1

[28] = target: Neu5Ac(a2-3)Gal(b1-3)[Fuc(a1-4)]GlcNAc(b1-3)Gal(b1-4)[Fuc(a1-3)]GlcNAc
Outline: as §1

[29] = target: Neu5Ac(a2-3)Gal(b1-3)[GlcNAc(b1-6)]GalNAc
Outline: as §1

[30] = target: Neu5Ac(a2-3)Gal(b1-3)[Neu5Ac(a2-6)]GalNAc
Outline: as §1

[31] = target: Neu5Ac(a2-3)Gal(b1-3)[Neu5Ac(a2-6)]GlcNAc(b1-3)[Fuc(a1-3)[Gal(b1-4)]GlcNAc(b1-6)]Gal(b1-4)Glc
Outline: as §1

[32] = target: Neu5Ac(a2-3)Gal(b1-3)]Neu5Ac(a2-3)Gal(b1-4)]GlcNAc
Outline: as §1

Neu5Ac(a2-3)Gal(b1-4)Glc = target: Neu5Ac(a2-3)Gal(b1-4)Glc
Outline: as §1

[33] = target: Neu5Ac(a2-3)Gal(b1-4)GlcNAc
Outline: as §1

[34] = target: Neu5Ac(a2-3)Gal(b1-4)GlcNAc(b1-2)Man
Outline: as §1

[35] = target: Neu5Ac(a2-3)Gal(b1-4)GlcNAc(b1-2)Man(a1-3)[GlcNAc(b1-4)][Neu5Ac(a2-3)Gal(b1-4)GlcNAc(b1-2)Man(a1-6)]Man(b1-4)GlcNAc(b1-4)GlcNAc
Outline: as §1

[36] = target: Neu5Ac(a2-3)Gal(b1-4)GlcNAc(b1-2)Man(a1-3)[Neu5Ac(a2-3)Gal(b1-4)GlcNAc(b1-2)Man(a1-6)]Man(b1-4)GlcNAc(b1-4)GlcNAc
Outline: as §1

[37] = target: Neu5Ac(a2-3)Gal(b1-4)GlcNAc(b1-2)Man(a1-3)[Neu5Ac(a2-3)Gal(b1-4)GlcNAc(b1-2)Man(a1-6)]Man(b1-4)GlcNAc(b1-4)[Fuc(a1-6)]GlcNAc
Outline: as §1

[38] = target: Neu5Ac(a2-3)Gal(b1-4)GlcNAc(b1-2)Man(a1-3)[Neu5Ac(a2-6)Gal(b1-4)GlcNAc(b1-2)Man(a1-6)]Man(b1-4)GlcNAc(b1-4)GlcNAc
Outline: as §1

[39] = target: Neu5Ac(a2-3)Gal(b1-4)GlcNAc(b1-2)[Neu5Ac(a2-3)Gal(b1-4)GlcNAc(b1-4)]Man(a1-3)[GlcNAc(b1-4)][Neu5Ac(a2-3)Gal(b1-4)GlcNAc(b1-2)[Neu5Ac(a2-3)Gal(b1-4)GlcNAc(b1-6)]Man(a1-6)]Man(b1-4)GlcNAc(b1-4)GlcNAc
Outline: as §1

B1: Arath Fbox LD (Arabidopsis thaliana) (protein)
chain: EFSVWLEKASGKRCLMLSAMNLSIIWGDNPQYWQWIPIPESRFEKVAKLRDVCWFEIRGRTNTRVLSPRTRYSAYIVFKGVDKCYGFQNVAIEAAVGVVGQEPSRRLICFSEAIRRGRRNVVKPKQREDGWMEIELGEFFNDGGIMDNDEIEMSALETKQLNRKCGLIIQGIEIRPAKILAAASFLEQKLISEEDLNSAVDHHHHHH
glycan array binding signal (z-score) [1]: 0.01
glycan array binding signal (z-score) [2]: -0.521
glycan array binding signal (z-score) [3]: -0.337
glycan array binding signal (z-score) [4]: -0.473
glycan array binding signal (z-score) [5]: -0.266
glycan array binding signal (z-score) (Man(a1-3)[Man(a1-6)]Man): -0.029
glycan array binding signal (z-score) [6]: -0.43
glycan array binding signal (z-score) [7]: -0.406
glycan array binding signal (z-score) [8]: -0.49
glycan array binding signal (z-score) [9]: -0.547
glycan array binding signal (z-score) [10]: -0.562
glycan array binding signal (z-score) (Man(a1-6)Man): 2.7
glycan array binding signal (z-score) (Man(b1-4)GlcNAc): -0.511
glycan array binding signal (z-score) (MurNAc(b1-4)GlcNAc): -0.568
glycan array binding signal (z-score) (Neu5Ac(a2-3)Gal): -0.404
glycan array binding signal (z-score) [11]: -0.126
glycan array binding signal (z-score) [12]: 0.141
glycan array binding signal (z-score) [13]: -0.164
glycan array binding signal (z-score) [14]: -0.316
glycan array binding signal (z-score) [15]: 0.414
glycan array binding signal (z-score) [16]: 0.153
glycan array binding signal (z-score) [17]: 2.03
glycan array binding signal (z-score) [18]: -0.462
glycan array binding signal (z-score) [19]: 0.842
glycan array binding signal (z-score) [20]: -0.423
glycan array binding signal (z-score) [21]: -0.086
glycan array binding signal (z-score) [22]: -0.567
glycan array binding signal (z-score) [23]: -0.648
glycan array binding signal (z-score) [24]: -0.64
glycan array binding signal (z-score) [25]: -0.302
glycan array binding signal (z-score) [26]: -0.55
glycan array binding signal (z-score) [27]: -0.44
glycan array binding signal (z-score) [28]: -0.507
glycan array binding signal (z-score) [29]: -0.633
glycan array binding signal (z-score) [30]: -0.264
glycan array binding signal (z-score) [31]: -0.662
glycan array binding signal (z-score) [32]: -0.103
glycan array binding signal (z-score) (Neu5Ac(a2-3)Gal(b1-4)Glc): -0.473
glycan array binding signal (z-score) [33]: -0.468
glycan array binding signal (z-score) [34]: 0.253
glycan array binding signal (z-score) [35]: -0.488
glycan array binding signal (z-score) [36]: -0.175
glycan array binding signal (z-score) [37]: -0.554
glycan array binding signal (z-score) [38]: -0.487
glycan array binding signal (z-score) [39]: -0.279
